Reference: the supplement of paper PMC4604168 (melanoma cell lines)
Some of the results follow. Many values rest on one well or one pass, so single values are uncertain.

These molecules were tested on A2058 (assay: cell count relative to DMSO control; melanoma cells; higher = more viable cells). Conditions: library dose: standard library concentration; 72 h.
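Note: cells treated in 1,536-well plates, then fixed and DAPI-stained, with nuclei counted from automated high-throughput microscope images.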

Question: For `CC(C)C[C@H](NC(=O)[C@H](Cc1ccccc1)NC(=O)c1cnccn1)B(O)O` [Bortezomib] + O=C(Oc1ccc([N+](=O)[O-])cc1)N1CCC(C(O)(c2ccc3c(c2)OCO3)c2ccc3c(c2)OCO3)CC1 [JZL184] (first compound 0.005 µM, partner dose 5 µM), which cell count is on record?
Answer: 16%

Question: For `Nc1ccn([C@@H]2O[C@H](CO)[C@@H](O)C2(F)F)c(=O)n1` [gemcitabine] + C/C(O)=C(\C#N)C(=O)Nc1cc(Br)ccc1Br [LFM-A13] (first compound 0.002 µM, partner dose 10 µM), which cell count is on record?
Answer: 67.1%

Question: For `O=C1NC(=O)/C(=C/c2ccc(-c3ccc(F)cc3O)o2)S1` + O=C(Oc1ccc([N+](=O)[O-])cc1)N1CCC(C(O)(c2ccc3c(c2)OCO3)c2ccc3c(c2)OCO3)CC1 [JZL184] (first compound 5 µM, partner dose 5 µM), which cell count is on record?
Answer: 102%

Question: Which cell count does the source give for `Cn1c(Nc2ccc(C(F)(F)F)cc2)nc2cc(Oc3ccnc(-c4ncc(C(F)(F)F)[nH]4)c3)ccc21` + C/C(O)=C(\C#N)C(=O)Nc1cc(Br)ccc1Br [LFM-A13] (first compound 0.4 µM, partner dose 10 µM) here?
Answer: 59.3%

Question: Which cell count does the source give for `COCC[n+]1c2c(n(Cc3cnccn3)c1C)C(=O)c1ccccc1C2=O` + C/C(O)=C(\C#N)C(=O)Nc1cc(Br)ccc1Br [LFM-A13] (first compound 0.002 µM, partner dose 10 µM) here?
Answer: 31.3%

Question: For `Cc1nc(Nc2ncc(C(=O)Nc3c(C)cccc3Cl)s2)cc(N2CCN(CCO)CC2)n1` [dasatanib] + C/C(O)=C(\C#N)C(=O)Nc1cc(Br)ccc1Br [LFM-A13] (first compound 0.02 µM, partner dose 10 µM), which cell count is on record?
Answer: 78.8%

Question: `C[C@@H]1CCN(C(=O)CC#N)C[C@@H]1N(C)c1ncnc2[nH]ccc12` + Cc1cc(SCc2sc(-c3ccc(C(F)(F)F)c(F)c3)nc2C)ccc1OCC(=O)O [GW0742] (first compound 5 µM, partner dose 10 µM) was tested. Which cell count did it give?
Answer: 106%

Question: `COCC[n+]1c2c(n(Cc3cnccn3)c1C)C(=O)c1ccccc1C2=O` + Cc1cc(SCc2sc(-c3ccc(C(F)(F)F)c(F)c3)nc2C)ccc1OCC(=O)O [GW0742] (first compound 0.002 µM, partner dose 10 µM) was tested. Which cell count did it give?
Answer: 28.9%

Question: Which cell count does the source give for `CC(C)C[C@H](NC(=O)[C@H](Cc1ccccc1)NC(=O)c1cnccn1)B(O)O` [Bortezomib] + C/C(O)=C(\C#N)C(=O)Nc1cc(Br)ccc1Br [LFM-A13] (first compound 0.005 µM, partner dose 10 µM) here?
Answer: 15%

Question: How did the cell count turn out when `Oc1cc(-c2nc(-c3ccccc3)[nH]c2-c2ccncc2)ccc1Cl` + O=C(Oc1ccc([N+](=O)[O-])cc1)N1CCC(C(O)(c2ccc3c(c2)OCO3)c2ccc3c(c2)OCO3)CC1 [JZL184] (first compound 1 µM, partner dose 5 µM) was run?
Answer: 89.8%

What follows are molecules tested on A375 in the same assay as above. Conditions: library dose: standard library concentration; 72 h.

Question: Which cell count does the source give for `Cc1nc(Nc2ncc(C(=O)Nc3c(C)cccc3Cl)s2)cc(N2CCN(CCO)CC2)n1` [dasatanib] + Cc1cc(SCc2sc(-c3ccc(C(F)(F)F)c(F)c3)nc2C)ccc1OCC(=O)O [GW0742] (first compound 0.02 µM, partner dose 10 µM) here?
Answer: 72.3%

Question: Which cell count does the source give for `C#Cc1cccc(Nc2ncnc3cc(OCCOC)c(OCCOC)cc23)c1` [erlotinib] + O=C(Oc1ccc([N+](=O)[O-])cc1)N1CCC(C(O)(c2ccc3c(c2)OCO3)c2ccc3c(c2)OCO3)CC1 [JZL184] (first compound 4 µM, partner dose 5 µM) here?
Answer: 111%

Question: `O=C(O)c1ccc2c(c1)nc(Nc1cccc(Cl)c1)c1ccncc12` + Cc1cc(SCc2sc(-c3ccc(C(F)(F)F)c(F)c3)nc2C)ccc1OCC(=O)O [GW0742] (first compound 2 µM, partner dose 10 µM) was tested. Which cell count did it give?
Answer: 104%

Question: `COc1cc2ncnc(Nc3ccc(Oc4ccccc4)cc3)c2cc1OC` + C/C(O)=C(\C#N)C(=O)Nc1cc(Br)ccc1Br [LFM-A13] (first compound 10 µM, partner dose 10 µM) was tested. Which cell count did it give?
Answer: 154%

Question: Which cell count does the source give for `CN1CCN(c2ccc3nc(-c4c(N)c5c(F)cccc5[nH]c4=O)[nH]c3c2)CC1` [Dovitinib] + C/C(O)=C(\C#N)C(=O)Nc1cc(Br)ccc1Br [LFM-A13] (first compound 0.5 µM, partner dose 10 µM) here?
Answer: 71.8%

Question: `C=CCn1c(=O)c2cnc(Nc3ccc(N4CCN(C)CC4)cc3)nc2n1-c1cccc(C(C)(C)O)n1` + Cc1cc(SCc2sc(-c3ccc(C(F)(F)F)c(F)c3)nc2C)ccc1OCC(=O)O [GW0742] (first compound 0.1 µM, partner dose 10 µM) was tested. Which cell count did it give?
Answer: 62.4%

Question: How did the cell count turn out when `COc1ccc(COc2ccc(Cc3cnc(N)nc3N)cc2OC)cc1` + C/C(O)=C(\C#N)C(=O)Nc1cc(Br)ccc1Br [LFM-A13] (first compound 5 µM, partner dose 10 µM) was run?
Answer: 73.7%

Question: How did the cell count turn out when `O=C(O)C(=O)Nc1sc2c(c1C(=O)O)CCNC2` + C/C(O)=C(\C#N)C(=O)Nc1cc(Br)ccc1Br [LFM-A13] (first compound 8.33333 µM, partner dose 10 µM) was run?
Answer: 149%

Question: `COc1cc(N2CCC(N3CCN(C)CC3)CC2)ccc1Nc1ncc(Cl)c(Nc2ccccc2S(=O)(=O)C(C)C)n1` + O=C(Oc1ccc([N+](=O)[O-])cc1)N1CCC(C(O)(c2ccc3c(c2)OCO3)c2ccc3c(c2)OCO3)CC1 [JZL184] (first compound 0.4 µM, partner dose 5 µM) was tested. Which cell count did it give?
Answer: 79.5%

Question: With `O=C(CCCCCCC(=O)Nc1ccccc1)NO` [vorinostat] + Cc1cc(SCc2sc(-c3ccc(C(F)(F)F)c(F)c3)nc2C)ccc1OCC(=O)O [GW0742] (first compound 0.4 µM, partner dose 10 µM) as the molecule, how does the cell count read?
Answer: 122%

Question: For `C[C@@H]1CCN(C(=O)CC#N)C[C@@H]1N(C)c1ncnc2[nH]ccc12` + C/C(O)=C(\C#N)C(=O)Nc1cc(Br)ccc1Br [LFM-A13] (first compound 5 µM, partner dose 10 µM), which cell count is on record?
Answer: 139%

Question: How did the cell count turn out when `Cc1cc(Nc2cc(N3CCN(C)CC3)nc(Sc3ccc(NC(=O)C4CC4)cc3)n2)n[nH]1` [Tozasertib] + C/C(O)=C(\C#N)C(=O)Nc1cc(Br)ccc1Br [LFM-A13] (first compound 0.03 µM, partner dose 10 µM) was run?
Answer: 82.5%

Question: With `Oc1cc(-c2nc(-c3ccccc3)[nH]c2-c2ccncc2)ccc1Cl` + C/C(O)=C(\C#N)C(=O)Nc1cc(Br)ccc1Br [LFM-A13] (first compound 1 µM, partner dose 10 µM) as the molecule, how does the cell count read?
Answer: 95.4%

Question: For `Nc1ccn([C@@H]2O[C@H](CO)[C@@H](O)C2(F)F)c(=O)n1` [gemcitabine] + O=C(Oc1ccc([N+](=O)[O-])cc1)N1CCC(C(O)(c2ccc3c(c2)OCO3)c2ccc3c(c2)OCO3)CC1 [JZL184] (first compound 0.002 µM, partner dose 5 µM), which cell count is on record?
Answer: 84.7%

Question: For `Clc1ccc(Nc2nnc(Cc3ccncc3)c3ccccc23)cc1` [vatalanib] + C/C(O)=C(\C#N)C(=O)Nc1cc(Br)ccc1Br [LFM-A13] (first compound 10 µM, partner dose 10 µM), which cell count is on record?
Answer: 98.5%

Question: How did the cell count turn out when `c1cc(-c2cnn3cc(-c4ccc(OCCN5CCCCC5)cc4)cnc23)ccn1` [Dorsomorphin] + O=C(Oc1ccc([N+](=O)[O-])cc1)N1CCC(C(O)(c2ccc3c(c2)OCO3)c2ccc3c(c2)OCO3)CC1 [JZL184] (first compound 2 µM, partner dose 5 µM) was run?
Answer: 80.2%

Question: For `CO[C@H]1C[C@@H]2CC[C@@H](C)[C@@](O)(O2)C(=O)C(=O)N2CCCC[C@H]2C(=O)O[C@H]([C@H](C)C[C@@H]2CC[C@@H](OCCO)[C@H](OC)C2)CC(=O)[C@H](C)/C=C(\C)[C@@H](O)[C@@H](OC)C(=O)[C@H](C)C[C@H](C)/C=C/C=C/C=C/1C` [everolimus] + C/C(O)=C(\C#N)C(=O)Nc1cc(Br)ccc1Br [LFM-A13] (first compound 0.1 µM, partner dose 10 µM), which cell count is on record?
Answer: 87.7%

Question: Which cell count does the source give for `C=CCn1c(=O)c2cnc(Nc3ccc(N4CCN(C)CC4)cc3)nc2n1-c1cccc(C(C)(C)O)n1` + O=C(Oc1ccc([N+](=O)[O-])cc1)N1CCC(C(O)(c2ccc3c(c2)OCO3)c2ccc3c(c2)OCO3)CC1 [JZL184] (first compound 0.1 µM, partner dose 5 µM) here?
Answer: 51.1%

Question: Which cell count does the source give for `O=C(CCCCCCC(=O)Nc1ccccc1)NO` [vorinostat] + C/C(O)=C(\C#N)C(=O)Nc1cc(Br)ccc1Br [LFM-A13] (first compound 0.4 µM, partner dose 10 µM) here?
Answer: 106%

Question: For `Clc1ccc(Nc2nnc(Cc3ccncc3)c3ccccc23)cc1` [vatalanib] + O=C(Oc1ccc([N+](=O)[O-])cc1)N1CCC(C(O)(c2ccc3c(c2)OCO3)c2ccc3c(c2)OCO3)CC1 [JZL184] (first compound 10 µM, partner dose 5 µM), which cell count is on record?
Answer: 102%

Question: How did the cell count turn out when `CO[C@H]1C[C@@H]2CC[C@@H](C)[C@@](O)(O2)C(=O)C(=O)N2CCCC[C@H]2C(=O)O[C@H]([C@H](C)C[C@@H]2CC[C@@H](OCCO)[C@H](OC)C2)CC(=O)[C@H](C)/C=C(\C)[C@@H](O)[C@@H](OC)C(=O)[C@H](C)C[C@H](C)/C=C/C=C/C=C/1C` [everolimus] + Cc1cc(SCc2sc(-c3ccc(C(F)(F)F)c(F)c3)nc2C)ccc1OCC(=O)O [GW0742] (first compound 0.1 µM, partner dose 10 µM) was run?
Answer: 101%
